In PubChem BioAssay AID488969 (Vanderbilt High Throughput Screening Facility, 2010):
“And” between values parts separate entries of the source, which are not always exact repeats. Equal entries are not always repeated. The full ranking holds about 110,000 compounds; the median of “z-score” is about -0.1, and the highest 2% start at about 2. This is one part of the list. The source made the active and inactive calls.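 How the source made its calls: active means z-score in the third read window above 3 or below -3; inactive means the rest.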

What follows are molecules tested against Metabotropic glutamate receptor 8 (Rattus norvegicus) (UniProt P70579) (assay: rat mGluR8 modulators via GIRK flux, primary screen, cell-based, thallium flux, HTS (AID 488969)). Conditions: HEK293 rat mGluR8, GIRK (G protein-gated inwardly rectifying potassium channel) thallium flux, FluoZin2; at 10 µM; stronger effect = higher value; submaximal glutamate (EC20) added with thallium.
UniProt P70579, sequence (P70579 whole entry, looked up): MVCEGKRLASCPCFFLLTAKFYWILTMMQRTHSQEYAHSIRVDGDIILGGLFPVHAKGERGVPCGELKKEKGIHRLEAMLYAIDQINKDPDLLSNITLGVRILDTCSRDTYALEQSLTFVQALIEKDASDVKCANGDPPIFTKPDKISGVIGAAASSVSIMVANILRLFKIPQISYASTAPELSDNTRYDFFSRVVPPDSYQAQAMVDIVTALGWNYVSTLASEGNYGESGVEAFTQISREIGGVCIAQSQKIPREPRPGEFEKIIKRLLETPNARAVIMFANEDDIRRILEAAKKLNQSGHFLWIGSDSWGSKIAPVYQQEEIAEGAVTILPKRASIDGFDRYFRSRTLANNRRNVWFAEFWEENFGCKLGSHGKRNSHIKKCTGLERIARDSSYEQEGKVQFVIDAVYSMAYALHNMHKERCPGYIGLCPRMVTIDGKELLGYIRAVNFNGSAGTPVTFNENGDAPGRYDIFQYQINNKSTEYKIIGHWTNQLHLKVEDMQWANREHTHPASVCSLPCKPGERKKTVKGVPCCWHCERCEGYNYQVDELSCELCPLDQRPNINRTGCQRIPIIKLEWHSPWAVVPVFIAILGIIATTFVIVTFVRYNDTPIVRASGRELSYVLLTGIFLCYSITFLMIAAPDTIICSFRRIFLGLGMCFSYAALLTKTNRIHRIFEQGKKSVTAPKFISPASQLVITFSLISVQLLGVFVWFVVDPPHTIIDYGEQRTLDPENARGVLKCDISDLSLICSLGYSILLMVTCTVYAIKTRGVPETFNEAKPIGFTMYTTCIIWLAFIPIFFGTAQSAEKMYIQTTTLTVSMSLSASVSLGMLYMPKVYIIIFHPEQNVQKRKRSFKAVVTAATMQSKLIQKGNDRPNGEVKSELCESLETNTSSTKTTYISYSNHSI

Compared with `COc1ccc(-c2nn(C)c(=O)c3ccccc23)cc1CNC(=O)c1ccco1`, `COc1ccccc1CNC(=O)c1ccccc1N(C)S(C)(=O)=O` is higher in z-score: -2.21 for the first, -0.011 for the second.

Compared with `C[C@@H]1C[C@H](O)c2cc(Cl)ccc2N1`, `CCC(=O)Nc1cc(Cl)ccc1C(=O)O` is lower in z-score: 0.163 for the first, 0.022 for the second.

First: CC(C)OCCCN(CC(O)c1ccccc1)CC(O)c1ccccc1 (centres undefined)
Second: O=C(COC(=O)CC(c1ccccc1)c1ccccc1)NCc1ccccc1
The z-score of the first is higher: -0.0165 for the first, -0.205 for the second.

First: O=c1[nH]c(=O)n(Cc2ccco2)c2c1C(C(F)(F)F)(C(F)(F)F)N=C(c1ccc(F)cc1)N2
Second: CCCc1nc2c(c(=O)c3ccccc3n2C)c(=O)n1-c1ccc(F)cc1
The z-score of the first is higher: -0.176 for the first, -1.04 for the second.

Going from `C/C(CC(=O)NCc1ccco1)=N\NC(=O)Cc1ccc(Cl)cc1` to `O=C(CNC(=O)Cc1ccccc1)NCC(=O)OCC(=O)c1ccc(Cl)cc1`, the z-score rises from -0.18 to -0.138.

Compared with `COc1ccc(-n2ncc3c(SCC(=O)N4CCN(c5ccccc5OC)CC4)ncnc32)cc1`, `CC1CCc2c(sc(NC(=O)CSc3ncnc4c3cnn4-c3ccccc3Cl)c2C#N)C1` (centres undefined) is lower in z-score: 1.77 for the first, -0.899 for the second.

Going from `CCN(CC)CCn1c(NCc2cccc(OC)c2OC)nc2ccccc21` to `CCN(CC)CCNC(=O)Cn1c(C)cc2ccccc2c1=O`, the z-score falls from 0.875 to 0.122.

Going from `Cc1ccc(SCC(=O)NCc2cccnc2)cc1` to `Cc1ccc(-n2c(SCC(=O)NCc3ccco3)nc3sc(C)c(C)c3c2=O)cc1`, the z-score falls from 0.188 to -1.38.

First: COc1ccc(-c2cc(-c3ccccc3)c(C#N)c(S(C)(=O)=O)n2)cc1
Second: Cc1cccc(NC(=O)c2sc3nc(-c4ccccc4)cn3c2C)n1
The z-score of the first is higher: 0.0878 for the first, -0.607 for the second.

Compared with `Nc1cc(=O)nc(SCC(=O)N(C2CCCCC2)C2CCCCC2)n1-c1ccccc1`, `O=C(CCC1CCCC1)NC1CCCCC1` is higher in z-score: -0.245 for the first, -0.0138 for the second.

Compared with `CC(=O)c1ccc(OCCCC(=O)N2CCN(S(=O)(=O)c3cccs3)CC2)cc1`, `COCCCNC(=O)C1CCCN(C(=O)Nc2ccc(OC)cc2)C1` (centres undefined) is higher in z-score: -0.431 for the first, -0.392 for the second.

Going from `COc1ccc(NC(=O)CN(Cc2ccccc2)S(C)(=O)=O)cc1OC` to `CS(=O)(=O)N(CCc1ccccc1)CC(=O)NCc1ccccn1`, the z-score rises from 0.083 to 0.492.

First: CCC1(C)Cc2c(sc3nc(NN)n(C)c(=O)c23)CO1 (centres undefined)
Second: Cc1sc2nc3n(c(=O)c2c1C)CCCS3
The z-score of the first is lower: -1.76 for the first, -0.0491 for the second.

Going from `COc1ccc(Cl)cc1N1C(=O)/C(=C\c2sccc2C)N=C1SCC(=O)NC1CC1` to `COc1ccccc1N1CCN(Cc2nc3ccsc3c(=O)[nH]2)CC1`, the z-score rises from -0.15 to -0.0828.

Going from `Cc1ccc(Cl)cc1NC(=O)CC(O)(C(F)(F)F)C(F)(F)F` to `NC(=O)c1ccc(C(F)(F)F)n(Cc2ccccc2Cl)c1=O`, the z-score rises from -2.38 to -0.152.

Compared with `CCCCC(=Nc1ccc(N)cc1)C1=C(O)C(C(=O)OC)C(C)(C)CC1=O` (centres undefined), `COc1ccc2c(c1OC)C(=O)OC2CC(=O)c1ccc(O)c(O)c1` (centres undefined) is lower in z-score: 0.177 for the first, -0.528 for the second.

First: COc1cc(S(=O)(=O)N2CCCCC2)ccc1NC(C)=O
Second: COc1cc(N(C)C)c(NC(C)=O)cc1C(=O)O
The z-score of the first is lower: -0.134 for the first, 0.018 for the second.

Going from `COc1cc2c(cc1OC)C(SC)=NC(C)(C)C2` to `COc1ccc(Cn2c(=O)oc3ccc(C)cc32)cc1OC`, the z-score rises from -0.855 to -0.379.

Compared with `COc1ccc(-c2nnc(SCC(=O)NCc3cccs3)n2CC(C)C)cc1`, `CCCCn1c(SCC(=O)Nc2cc(C)on2)nnc1-c1cccnc1` is higher in z-score: -0.108 for the first, 2.11 for the second.

Going from `CCCS(=O)(=O)c1c(S(=O)(=O)CCC)c2ccccn2c1C(=O)OC` to `Cc1cccc(C)c1NC(=O)CCS(=O)(=O)c1cccc2nsnc12`, the z-score rises from 0.0483 to 0.588.

Compared with `CCc1cccc2c(C(=O)COC(=O)/C=C/c3ccccc3OC)c[nH]c12`, `COc1ccc(S(=O)(=O)N(C(C)=O)c2ccc(OC(C)=O)c3ccccc23)cc1[N+](=O)[O-]` is lower in z-score: -0.246 for the first, -0.812 for the second.

First: COc1ccc(S(=O)(=O)N(CCCN2CCCC2=O)Cc2cc3c(C)ccc(C)c3[nH]c2=O)cc1
Second: CCCOc1ccc(C2c3c(oc4cc(C)c(C)cc4c3=O)C(=O)N2CCCN2CCOCC2)cc1 (centres undefined)
The z-score of the first is higher: -0.459 for the first, -0.881 for the second.

Compared with `Cc1ccc(/C=C/C(=O)NCCCc2ccccc2)cc1`, `O=C(COC(=O)c1n[nH]c2ccccc12)NCc1ccccc1` is lower in z-score: -0.256 for the first, -1.01 for the second.

First: O=c1cc(CSc2nnc(COc3ccccc3Cl)o2)nc2sccn12
Second: O=C(CSc1nnc(CNc2ccc(Cl)cc2)o1)Nc1nc2ccccc2s1
The z-score of the first is higher: 0.0759 for the first, -0.147 for the second.

Going from `O=C(O)c1[nH]c2ccc(Cl)cc2c1CC(=O)N1CCN(c2ccccc2)CC1` to `Cc1nn(Cc2ccccc2Cl)c2sc(C(=O)Nc3ccccc3N3CCOCC3)cc12`, the z-score falls from 0.938 to -0.429.

Compared with `CCOC(=O)/C(C#N)=C/c1cn(CCOc2ccccc2)c2ccccc12`, `O=C(CSc1ncn[nH]1)Nc1ccccc1Sc1ccccc1` is lower in z-score: 0.751 for the first, -0.218 for the second.

First: O=c1[nH]c2c(s1)C(c1ccc(O)cc1)C1C3CCC(C3)C1S2 (centres undefined)
Second: COc1ccc(N2C(=O)c3ccccc3NC23CCC(C)CC3)cc1 (centres undefined)
The z-score of the first is lower: -0.888 for the first, 0.784 for the second.

Compared with `O=C(Nc1ccc2nc(-c3cccs3)[nH]c2c1)c1cccs1`, `CC(C)c1ccc(NCCC(=O)c2cccs2)cc1` is higher in z-score: -1.4 for the first, -0.0347 for the second.

First: CC1CCC(C(C)C)C(OCC(O)CN2CCOCC2)C1 (centres undefined)
Second: CCCS(=O)(=O)N1CCC(C(=O)N2CCCC2)CC1
The z-score of the first is higher: 0.174 for the first, -1.16 for the second.

First: O=C(c1cc2nc(-c3ccccc3)cc(C(F)(F)F)n2n1)N1CCOCC1
Second: Cn1nnnc1SCC(=O)Nc1ccccc1N1CCOCC1
The z-score of the first is higher: 0.057 for the first, -0.235 for the second.

Going from `COc1ccc(S(=O)(=O)Nc2ccccc2OC)cc1NC(=O)c1cc2ccccc2oc1=O` to `Cc1cccc(S(=O)(=O)c2c(N)n(/N=C/c3ccccc3)c3nc4ccccc4nc23)c1`, the z-score rises from -0.0577 to 0.75.

Compared with `Cc1ccc(N(CC(=O)NC(C)c2ccccc2)S(=O)(=O)c2cccs2)cc1` (centres undefined), `Cc1ccc(C(=O)COC(=O)CNC(=O)C(c2ccccc2)c2ccccc2)cc1[N+](=O)[O-]` is higher in z-score: -1.88 for the first, 0.162 for the second.

Compared with `Cc1ccccc1C(C(=O)NC1CCCC1)N(C(=O)Cc1cccs1)c1ccc2c(c1)OCCO2` (centres undefined), `O=C(Cn1nnc(-c2ccccc2NC(=O)c2ccccc2)n1)Nc1ccc2c(c1)OCCO2` is higher in z-score: -0.335 for the first, 0.418 for the second.

First: COc1ccc2c(c1OC)C(=O)OC2CC(=O)c1ccc2c(c1)OCO2 (centres undefined)
Second: COc1ccc2c(c1OC)C(=O)N1N=C(c3ccccc3)CC21 (centres undefined)
The z-score of the first is lower: -0.196 for the first, -0.169 for the second.

Going from `CCOC(=O)Cn1cnc([N+](=O)[O-])n1` to `CCOC(=O)CSc1ncc(-c2ccccc2)cn1`, the z-score rises from -0.225 to -0.0802.

First: Cc1ccc(C(=O)c2c(NC(=O)CSc3nnc(N)s3)sc3c2CCCC3)cc1
Second: O=C(Nc1ccc(F)c(Cl)c1)c1ccc2c(=O)n3c(nc2c1)CCCCC3
The z-score of the first is higher: -0.372 for the first, -0.847 for the second.

Compared with `Cc1cc(C(=O)Nc2c(C)n(C)n(-c3ccccc3)c2=O)c(C)o1`, `CCOc1ccc(Nc2cc(C)nc(-n3nc(C)cc3C)n2)cc1` is higher in z-score: -0.168 for the first, 0.647 for the second.

Going from `O=c1nc(N2CCOCC2)ccn1Cc1ccc(Br)cc1` to `O=S1(=O)c2ccccc2N=NN1Cc1ccc(Cl)c(Cl)c1`, the z-score rises from -0.23 to 0.153.

Going from `O=C(Nc1ccc2oc(-c3ccccc3F)nc2c1)c1ccc2c(c1)OCCO2` to `Cc1cc2cc3c(cc2nc1SCc1ccc(C(=O)O)cc1)OCCO3`, the z-score rises from -0.681 to -0.554.

Going from `Cc1cc(N/N=C/c2ccccc2Cl)nc(NCc2ccccc2)n1` to `CC(NC(=O)c1ccc(F)cc1)c1nc2ccccc2n1Cc1ccccc1F` (centres undefined), the z-score falls from 0.191 to -0.254.

Compared with `COc1cccc(C(=O)NN2C(=O)C3C4C=CC(O4)C3C2=O)c1` (centres undefined), `CCOC(=O)C1(CC)NC(c2ccco2)C2C(=O)N(CC)C(=O)C21` (centres undefined) is higher in z-score: -0.249 for the first, -0.0611 for the second.

Compared with `COc1cc(C(=O)N2CCC(N3CCCCCC3)CC2)cc(OC)c1OC`, `COc1ccc(C2(CNC(=O)CCC(=O)O)CCCC2)cc1OC` is higher in z-score: -0.523 for the first, -0.181 for the second.

Compared with `CCOC(=O)c1c(C)oc2ccc(O)cc12`, `CCOC(=O)c1nn(-c2sc(C(=O)OC)c(C)c2C(=O)OC)cc1O` is lower in z-score: -0.208 for the first, -0.249 for the second.

First: CC(=O)/C(N=Nc1ccc2c(c1)OCO2)=C(\C)O
Second: CS(=O)(=O)N(CC(=O)Nc1ccc2c(c1)OCO2)c1ccc2c(c1)OCO2
The z-score of the first is lower: -0.631 for the first, -0.0648 for the second.

Going from `CC(=O)N1CCc2cc3nc(C)cc(C)c3cc21` to `CCn1c(=S)[nH]c2nc3c(cc2c1=O)CCCC3`, the z-score rises from 0.771 to 2.31.

Going from `CCN(c1ccc(NC(=O)CCNC(=O)c2ccco2)cc1)C(C)C` to `C=CCn1c(CCNC(=O)c2ccccc2F)nnc1SCC(=O)Nc1nc(C)cs1`, the z-score rises from -0.0798 to 0.0314.

Compared with `Cc1ccc(Cc2cnc(NC(=O)/C(C#N)=C/c3ccc(-c4ccccc4[N+](=O)[O-])o3)s2)cc1`, `Cc1ccc(-c2nn(-c3ccccc3)cc2C2CC(c3cccs3)=NN2C(=O)CCC(=O)O)cc1` (centres undefined) is lower in z-score: 0.0461 for the first, -0.41 for the second.

Going from `Nn1cnc2c(c1=O)C1(CCCCC1)Cc1ccccc1-2` to `O=C1CSC(=S)N1N=C1CCCCCC1`, the z-score rises from -0.149 to -0.1.

First: Cc1nn(Cc2ccc(F)cc2)c(C)c1NC(=O)c1cc(-c2ccc3c(c2)OCO3)on1
Second: O=C(CSCc1cccc(Br)c1)N/N=C/c1ccc2c(c1)OCO2
The z-score of the first is lower: -0.162 for the first, -0.0411 for the second.

Going from `C=CCNC(=O)C1CCN(c2c([N+](=O)[O-])cc(C(F)(F)F)cc2[N+](=O)[O-])CC1` to `C=CCNC(=O)C1(c2ccccc2)CC1(Cl)Cl` (centres undefined), the z-score falls from -0.149 to -0.161.

Compared with `Clc1ccc(Br)cc1-c1nc(-c2cccnc2)no1`, `CC(C)N1C(=O)C(Cc2nc3ccccc3c(=O)n2-c2ccccc2)c2ccccc21` (centres undefined) is higher in z-score: -0.126 for the first, 0.0492 for the second.

Compared with `Cc1ccc(C(O)(C(=O)NN(C(=O)c2ccccc2)c2ccccc2)c2ccc(C)cc2)cc1`, `CCCC1(c2ccccc2)NC(=O)N(CCN2C(=O)c3ccccc3C2=O)C1=O` (centres undefined) is higher in z-score: 0.0414 for the first, 0.0548 for the second.

First: Cn1ncc2nc[nH]c(=O)c21
Second: CCCCNCCOCCSc1ccc(Cl)cc1
The z-score of the first is lower: 0.284 for the first, 0.846 for the second.

With `Cc1ccc(C(O)(C(=O)NNc2ccc3ccccc3n2)c2ccc(C)cc2)cc1` the z-score was -0.153 and 0.52.
For `CC1CCc2nn(CC(=O)N3CCN(C(=O)c4ccco4)CC3)cc2C1` (centres undefined), the z-score was active: 3.92.
With `CCN1C(=O)/C(=C/c2ccc(C)s2)NC1=S` the z-score was active: 15.1.
